Test results: patent US11000038B2, “Pyridone compounds and agricultural and horticultural fungicides containing the same as active ingredients” (priority 2017, dated 2021)

Assays:
[1] = tested on: gray mold fungi (Botrytis cinerea); assay: Test Example B: tomato gray mold, spray treatment of tomato plants; settings: for Test B control value: tomato gray mold; for Test B control value class (tomato gray mold): control value=100{1-(n/3)}
[2] = tested on: barley powdery mildew fungi (Blumeria graminis f. sp. hordei); assay: Test Example D: barley powdery mildew, spray treatment of barley plants; settings: for Test D control value: barley powdery mildew; for Test D control value class (barley powdery mildew): control value=100{1-(n/3)}
[3] = tested on: wheat brown rust fungi (Puccinia recondita); assay: Test Example E: wheat brown rust, spray treatment of wheat plants; format: in vivo; settings: for Test E control value: wheat brown rust; for Test E control value class (wheat brown rust): control value=100{1-(n/3)}
[4] = tested on: grape downy mildew fungus (Plasmopara viticola); assay: Test Example G: grape downy mildew, spray treatment of grape plants; settings: for Test G control value: grape downy mildew, 7 to 10 days after inoculation; for Test G control value class (grape downy mildew): 2.5 ml/pot, grape Neomuscat, 7 to 10 days from inoculation
[5] = tested on: cabbage Alternaria sooty spot fungi (Alternaia brassicicola); assay: Test Example C: cabbage Alternaria sooty spot, spray treatment of cabbage plants; format: in vivo; settings: for Test C control value: cabbage Alternaria sooty spot; for Test C control value class (cabbage Alternaria sooty spot): control value=100{1-(n/3)}
Description: [Test Example C] Cabbage Alternaria Sooty Spot
Test plants (cabbage variety: Shikidori) were cultivated until the cotyledons extended after the sowing of seeds.
<Control Value> Control value=100{1−(n/3)}

[6] = spray treatment of tomato plants
[7] = spray treatment of barley plants
[8] = spray treatment of wheat plants
[9] = spray treatment of cabbage plants

| Compound | Test B control value [1, 6] | Test D control value [2, 7] | Test E control value [3, 8] | Test G control value ([4]; 250 ppm spray (2.5 ml/pot)) | Test C control value [5, 9] | Test B control value ([1]; spray treatment) | Test D control value ([2]; spray treatment) | Test E control value ([3]; spray treatment) | Test G control value ([4]; 250 ppm spray) | Test C control value ([5]; spray treatment) | further results |
| --- | --- | --- | --- | --- | --- | --- | --- | --- | --- | --- | --- |
| Cc1ccc(Br)cc1-n1cc(Cl)c(=O)c(Br)c1-c1c(F)cc(F)cc1F [Compound 249] | H (H shows the control value of more than 50%) | L (L shows the control value of 50% or less) | H (H shows the control value of more than 50%) | H (H shows the control value of more than 50%) | H (H shows the control value of more than 50%) |  |  |  |  |  |  |
| CCc1c(-c2c(F)cccc2F)n(-c2ccccc2C)cc(C)c1=O [Compound 508] |  |  |  |  |  | H (H shows the control value of more than 50%) | L (L shows the control value of 50% or less) | H (H shows the control value of more than 50%) | L (L shows the control value of 50% or less) | H (H shows the control value of more than 50%) |  |
| Cc1ccc(OCC#N)cc1-n1cc(Br)c(=O)c(Cl)c1-c1c(F)cc(F)cc1F [Compound 284] | H (H shows the control value of more than 50%) | H (H shows the control value of more than 50%) | H (H shows the control value of more than 50%) | H (H shows the control value of more than 50%) | H (H shows the control value of more than 50%) |  |  |  |  |  |  |
| Cc1cn(-c2ccccc2C(F)(F)F)c(-c2c(F)cccc2F)c(C)c1=O [Compound 370] | L (L shows the control value of 50% or less) | L (L shows the control value of 50% or less) | L (L shows the control value of 50% or less) | L (L shows the control value of 50% or less) | H (H shows the control value of more than 50%) |  |  |  |  |  |  |
| CC(C)c1ccccc1-n1cc(Cl)c(=O)c(Br)c1-c1c(F)cc(F)cc1F [Compound 396] |  |  |  |  |  | H (H shows the control value of more than 50%) | L (L shows the control value of 50% or less) | H (H shows the control value of more than 50%) | L (L shows the control value of 50% or less) | H (H shows the control value of more than 50%) |  |
| COc1cc(F)c(-c2c(C)c(=O)c(C)cn2-c2cc(C)ccc2C)c(F)c1 [Compound 401] |  |  |  |  |  | H (H shows the control value of more than 50%) | H (H shows the control value of more than 50%) | H (H shows the control value of more than 50%) | H (H shows the control value of more than 50%) | H (H shows the control value of more than 50%) |  |
| O=c1c(Br)cn(-c2cc(F)ccc2Cl)c(-c2c(F)cccc2F)c1Cl [Compound 105] |  |  |  |  |  |  |  |  |  |  | Test B control value class (tomato gray mold) [1, 6]: H (H shows the control value of more than 50%); Test D control value class (barley powdery mildew) [2, 7]: H (H shows the control value of more than 50%); Test E control value class (wheat brown rust) [3, 8]: H (H shows the control value of more than 50%); Test G control value class (grape downy mildew) ([4]; 250 ppm spray): L (L shows the control value of 50% or less); Test C control value class (cabbage Alternaria sooty spot) [5, 9]: H (H shows the control value of more than 50%) |
| Cc1ccc(F)cc1-n1cc(Cl)c(=O)c(Br)c1-c1c(F)cc(F)cc1F [Compound 179] |  |  |  |  |  |  |  |  |  |  | Test B control value class (tomato gray mold) [1, 6]: H (H shows the control value of more than 50%); Test D control value class (barley powdery mildew) [2, 7]: H (H shows the control value of more than 50%); Test E control value class (wheat brown rust) [3, 8]: H (H shows the control value of more than 50%); Test G control value class (grape downy mildew) ([4]; 250 ppm spray): L (L shows the control value of 50% or less); Test C control value class (cabbage Alternaria sooty spot) [5, 9]: H (H shows the control value of more than 50%) |
| Cc1c(F)cccc1-n1cc(C)c(=O)c(C)c1-c1c(F)cccc1F [Compound 479] |  |  |  |  |  | H (H shows the control value of more than 50%) | H (H shows the control value of more than 50%) | H (H shows the control value of more than 50%) | H (H shows the control value of more than 50%) | H (H shows the control value of more than 50%) |  |
| COc1cccc(-n2cc(Cl)c(=O)c(Br)c2-c2c(F)cc(F)cc2F)c1C [Compound 436] |  |  |  |  |  | H (H shows the control value of more than 50%) | H (H shows the control value of more than 50%) | H (H shows the control value of more than 50%) | H (H shows the control value of more than 50%) | H (H shows the control value of more than 50%) |  |
| COc1cc(F)c(-c2c(Cl)c(=O)c(Br)cn2-c2ccccc2C)c(F)c1 [Compound 181] |  |  |  |  |  |  |  |  |  |  | Test B control value class (tomato gray mold) [1, 6]: H (H shows the control value of more than 50%); Test D control value class (barley powdery mildew) [2, 7]: H (H shows the control value of more than 50%); Test E control value class (wheat brown rust) [3, 8]: H (H shows the control value of more than 50%); Test G control value class (grape downy mildew) ([4]; 250 ppm spray): L (L shows the control value of 50% or less); Test C control value class (cabbage Alternaria sooty spot) [5, 9]: H (H shows the control value of more than 50%) |
| O=c1c(Br)cn(-c2ccccc2C(F)(F)F)c(-c2c(F)cc(F)cc2F)c1Br [Compound 191] | H (H shows the control value of more than 50%) | L (L shows the control value of 50% or less) | H (H shows the control value of more than 50%) | L (L shows the control value of 50% or less) | H (H shows the control value of more than 50%) |  |  |  |  |  |  |
| CCCc1ccccc1-n1cc(Cl)c(=O)c(Cl)c1-c1c(F)cc(F)cc1F [Compound 446] |  |  |  |  |  | H (H shows the control value of more than 50%) | H (H shows the control value of more than 50%) | H (H shows the control value of more than 50%) | H (H shows the control value of more than 50%) | H (H shows the control value of more than 50%) |  |
| Cc1cn(CC(C)C)c(-c2c(F)cc(F)cc2F)c(C)c1=O [Compound 245] | H (H shows the control value of more than 50%) | H (H shows the control value of more than 50%) | H (H shows the control value of more than 50%) | L (L shows the control value of 50% or less) | H (H shows the control value of more than 50%) |  |  |  |  |  |  |
| CCc1c(-c2ccc(F)cc2Br)n(-c2ccccc2)cc(Br)c1=O [Compound 613] |  |  |  |  |  | H (H shows the control value of more than 50%) | L (L shows the control value of 50% or less) | H (H shows the control value of more than 50%) | L (L shows the control value of 50% or less) | H (H shows the control value of more than 50%) |  |
| Cc1cc(F)ccc1-n1cc(Cl)c(=O)c(Br)c1-c1c(F)cc(F)cc1F [Compound 275] | H (H shows the control value of more than 50%) | H (H shows the control value of more than 50%) | H (H shows the control value of more than 50%) | H (H shows the control value of more than 50%) | H (H shows the control value of more than 50%) |  |  |  |  |  |  |
| Cc1cc(F)ccc1-n1cc(Br)c(=O)c(Cl)c1-c1c(F)cc(F)cc1F [Compound 274] | H (H shows the control value of more than 50%) | H (H shows the control value of more than 50%) | H (H shows the control value of more than 50%) | L (L shows the control value of 50% or less) | H (H shows the control value of more than 50%) |  |  |  |  |  |  |
| Cc1ccccc1-n1cc(Cl)c(=O)c(Br)c1-c1c(F)cccc1F [Compound 113] |  |  |  |  |  |  |  |  |  |  | Test B control value class (tomato gray mold) [1, 6]: H (H shows the control value of more than 50%); Test D control value class (barley powdery mildew) [2, 7]: L (L shows the control value of 50% or less); Test E control value class (wheat brown rust) [3, 8]: H (H shows the control value of more than 50%); Test G control value class (grape downy mildew) ([4]; 250 ppm spray): L (L shows the control value of 50% or less); Test C control value class (cabbage Alternaria sooty spot) [5, 9]: H (H shows the control value of more than 50%) |
| CCc1c(-c2ccccc2)n(-c2cccc(F)c2C)cc(Br)c1=O [Compound 505] |  |  |  |  |  | H (H shows the control value of more than 50%) | H (H shows the control value of more than 50%) | H (H shows the control value of more than 50%) | L (L shows the control value of 50% or less) | H (H shows the control value of more than 50%) |  |
| CCCCn1cc(Cl)c(=O)c(Cl)c1-c1c(F)cc(F)cc1F [Compound 221] | H (H shows the control value of more than 50%) | L (L shows the control value of 50% or less) | H (H shows the control value of more than 50%) | H (H shows the control value of more than 50%) | H (H shows the control value of more than 50%) |  |  |  |  |  |  |
